In PubChem BioAssay AID504339 (National Center for Advancing Translational Sciences (NCATS), 2011):
About 17,000 (4.4%) of roughly 390,000 compounds were called active. This list was built around the results that the source calls inconclusive (neither active nor inactive); the mix of calls is not that of the screen. The call rests on the fitted dose curve; in most records, active means well fitted inhibition curve with a large enough effect; inconclusive means small, poorly fitted or top-dose-only effect; inactive means no such curve, though single readings can be large or run the other way. Potencies of inconclusive entries are doubtful fits and often do not repeat.

Each compound was assayed against Lysine-specific demethylase 4A (Homo sapiens) (UniProt O75164) (assay: qHTS Assay for Inhibitors of JMJD2A-Tudor Domain). Conditions: AlphaScreen JMJD2A-Tudor / H3K4me3 peptide binding; activity change, negative = inhibition: at 114 µM (top of the series).
Further: nearly all actives have a fitted effect of over 50% in size.
On the % scale 0 is the no-effect control and ±100 the full control effect; potency means the concentration at half of the fitted maximal effect; tags describe the fitted curve by direction and shape.

Sequence of UniProt O75164 (O75164 whole entry, looked up, the tested form may be a part): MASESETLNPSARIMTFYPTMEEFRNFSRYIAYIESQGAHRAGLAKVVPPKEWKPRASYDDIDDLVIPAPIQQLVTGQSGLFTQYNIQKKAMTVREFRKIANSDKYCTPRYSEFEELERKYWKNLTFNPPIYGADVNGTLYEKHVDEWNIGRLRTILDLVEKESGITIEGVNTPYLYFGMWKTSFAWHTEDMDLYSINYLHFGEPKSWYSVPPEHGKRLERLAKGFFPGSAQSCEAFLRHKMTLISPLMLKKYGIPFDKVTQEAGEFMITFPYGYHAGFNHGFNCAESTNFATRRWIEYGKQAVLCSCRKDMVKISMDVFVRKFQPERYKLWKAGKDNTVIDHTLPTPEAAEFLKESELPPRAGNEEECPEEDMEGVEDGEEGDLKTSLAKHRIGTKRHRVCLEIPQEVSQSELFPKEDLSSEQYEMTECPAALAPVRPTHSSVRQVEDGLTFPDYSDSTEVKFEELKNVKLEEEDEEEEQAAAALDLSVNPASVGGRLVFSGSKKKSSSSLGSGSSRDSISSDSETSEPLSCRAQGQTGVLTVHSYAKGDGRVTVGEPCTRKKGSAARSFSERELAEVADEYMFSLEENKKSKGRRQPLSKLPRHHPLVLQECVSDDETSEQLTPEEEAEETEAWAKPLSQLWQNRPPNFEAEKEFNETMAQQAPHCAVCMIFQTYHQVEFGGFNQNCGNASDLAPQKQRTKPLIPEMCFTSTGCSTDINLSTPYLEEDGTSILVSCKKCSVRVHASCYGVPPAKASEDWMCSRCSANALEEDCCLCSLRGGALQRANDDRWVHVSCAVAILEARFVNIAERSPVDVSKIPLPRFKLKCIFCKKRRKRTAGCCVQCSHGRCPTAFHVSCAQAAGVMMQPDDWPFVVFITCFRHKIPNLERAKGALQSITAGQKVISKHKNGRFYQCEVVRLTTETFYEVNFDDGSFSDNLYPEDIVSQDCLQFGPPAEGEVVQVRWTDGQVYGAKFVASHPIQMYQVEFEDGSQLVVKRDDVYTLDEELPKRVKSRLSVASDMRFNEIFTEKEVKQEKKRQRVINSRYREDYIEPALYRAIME

Activity change, negative = inhibition, inactive:
CC1CCN2c3ccccc3CC3(C(=O)OC(C)(C)OC3=O)C2C1 (configuration not stated) -23.1% [at 57.1 µM]
Cc1cc(=O)n2nc(N3CCC(C(=O)Nc4ccc(C)c(Cl)c4)CC3)sc2n1 -8.72%
CSc1ccc(CN(C)C(=O)c2cc3ccccc3o2)cc1 12.3%
CCCN(CC(=O)Nc1ccc(F)c(F)c1F)C(=O)Cc1ccc(OC)c(S(=O)(=O)N2CCOCC2)c1 -5.41%
Cc1ccccc1-c1nc2cc(NC(=O)COc3ccc(F)cc3)ccc2o1 -9.93%
COCCNC(=O)C1Cc2cc(S(=O)(=O)N3CCCC3)ccc2N1C(C)=O (configuration not stated) -2.78%
COc1ccc(-c2c(C#N)c(N)nc3c2CCCCCC3)cc1OC -14.3%
Cc1ccc(S(=O)(=O)N(C)C)cc1NC(=O)C(C)OC(=O)C1CCCC1 (configuration not stated) -0.69%
O=C(Nc1c2c(nn1-c1ccccc1)CS(=O)C2)c1ccco1 (configuration not stated) -18.5%
CC1CN(S(=O)(=O)c2cccc(C(=O)N(Cc3nnc(-c4ccccc4Cl)o3)C3CC3)c2)CC(C)O1 (configuration not stated) -5.44%
c1ccc(-c2csc(N3CCOCC3)n2)cc1 -32.4%
Nc1cc(=O)[nH]c(SCC(=O)c2ccc(O)cc2O)n1 -9.09%
CC(=O)OC(C)(C)C#CCN1CCCC1 -14%
COc1ccccc1-n1c(SCC(=O)N2CCc3ccccc32)nc2c(c1=O)SCC2 -29.2%
CCn1ccc(C(=O)Nc2ccsc2C(=O)OC)n1 -17.3%
COc1ccc(/C=N/NC(=O)c2ccncc2)c(OC)c1 -8.39%

Potency, active:
CN(Cc1ccccc1)C(=O)c1[nH]cnc1C(=O)Nc1nccs1 56.2 µM
CC(C)N(C(=O)Nc1ccc2nsnc2c1)C(C)C 79.4 µM
O=C(NNC(=O)c1cc(O)c(O)c(O)c1)NC1CCCCC1 10 µM
Cc1cc2ccccn2c1C(=O)c1cc([N+](=O)[O-])cc([N+](=O)[O-])c1 17.8 µM
O=[N+]([O-])c1cc(C(F)(F)F)cc([N+](=O)[O-])c1NCCNC(=S)Nc1ccc(Cl)c(Cl)c1 31.6 µM
COCCN(C(=O)COC(=O)Cc1coc2cc3c(cc12)CCC3)c1c(N)n(Cc2ccccc2)c(=O)[nH]c1=O 44.7 µM
Nc1ccccc1C(=O)NCc1ccccc1 35.5 µM

Potency, inconclusive:
Cc1ccc(/C=N/N2CCN(Cc3ccc(C)cc3)CC2)cc1 63.1 µM [inhibitor, partial curve, poor fit]
CC(=O)Nc1cc(C(=O)NCc2ccco2)ccc1Sc1ccc(Cl)cc1 63.1 µM [inhibitor, single point]
Cc1onc(-c2ccccc2Cl)c1C(=O)Nc1sc2c(c1C#N)CCC2 35.5 µM [inhibitor, full curve, poor fit]
Oc1ccc(/C=N/Nc2nc(N3CCCCCC3)nc(N3CCCCCC3)n2)c(O)c1 28.2 µM [inhibitor, partial curve]
CC(C)(C)OC(=O)N1CCN(C(=O)c2[nH]cnc2C(=O)Nc2ccon2)CC1 25.1 µM [inhibitor, full curve]
COc1ccc(C2=NCCn3nc4cc([N+](=O)[O-])ccc4c32)cc1 89.1 µM [inhibitor, partial curve]
Cc1c(O)ccc(-c2[nH]ncc2-c2nc3ccccc3s2)c1O 79.4 µM [inhibitor, partial curve]
O=C(O)C1C2C=CC3(O2)C1C(=O)N1c2ccccc2C2OCCC2C13 (configuration not stated) 89.1 µM [inhibitor, single point]
N#CC1=C(N)N(c2ccccc2)C(c2cccc([N+](=O)[O-])c2)C1(C#N)C#N (configuration not stated) 56.2 µM [inhibitor, partial curve]
COC(=O)c1c(NC(C)=O)sc(C(=O)Nc2ccccc2OC)c1C 56.2 µM [inhibitor, partial curve, poor fit]
CC(=O)c1ccc(N2CCN(S(=O)(=O)c3ccc4[nH]c5c(c4c3)CCCC5)CC2)cc1 8.91 µM [inhibitor, full curve, poor fit]
COc1ccc(C(=O)/C=C/c2ccsc2)cc1CSCC(=O)O 89.1 µM [inhibitor, single point]
O=C1CCC(C(=O)OCC(=O)c2ccccc2)N1 (configuration not stated) 22.4 µM [inhibitor, single point]
Cc1nnsc1C(=O)N/N=C/c1ccc2ccccc2c1O 11.2 µM [inhibitor, partial curve]
CCOc1cc(/C=C2/C(=O)N(c3ccccc3)N=C2C)ccc1OC(=O)c1cccs1 28.2 µM [inhibitor, partial curve]
c1ccc(-c2nnc(N3CCN(c4ccccn4)CC3)c3ccccc23)cc1 39.8 µM [inhibitor, partial curve]
COc1ccc(N2CCN(Cc3nc4ccccc4n3C)CC2)cc1 56.2 µM [inhibitor, partial curve]
CCN(CC)C1CC(=O)N(c2ccc(Br)cc2)C1=O (configuration not stated) 89.1 µM [inhibitor, single point]
O=C(NC(=S)NCCCN1CCOCC1)c1ccc([N+](=O)[O-])cc1 22.4 µM [inhibitor, partial curve]
Cc1ccc(CN(C(=O)c2csnn2)C(C(=O)NC2CCCC2)c2ccccn2)cc1 (configuration not stated) 3.16 µM [inhibitor, partial curve, poor fit]
COC(=O)c1[nH]c2cc(OC)c(OC)cc2c1NC(=O)Oc1ccccc1 56.2 µM [inhibitor, partial curve]
OCCN(CC(O)COc1ccccc1)CC(O)Cn1ccc2ccccc21 (configuration not stated) 89.1 µM [inhibitor, single point]
Cc1[nH]c2ccccc2c1/C=C(\C#N)S(=O)(=O)c1ccccc1 44.7 µM [inhibitor, partial curve]
CCN(CC)CCCN1C(=O)c2oc3ccccc3c(=O)c2C1c1cccnc1 (configuration not stated) 89.1 µM [inhibitor, single point]
